1 protein from PMC10692916, “Protein arginine N-methyltransferase 2 plays a noncatalytic role in the histone methylation activity of PRMT1” (The Journal of Biological Chemistry, 2023) can be followed below.

This data set deals with the molecule itself. In words: native gel or EMSA; mCer-PRMT1 and mCit-PRMT2, 1 uM each, alone or mixed, 1 h at 37 °C in methylation buffer without SAH or H3 peptide; 4-20% native PAGE, fluorescence imaging. Background: In EMSA bound probe runs differently from free probe, usually more slowly.

B1: mCer-PRMT1 (mCerulean fusion of PRMT1) (enzyme)
chain: not shown
notes: PRMT1, human, […] printed for PRMT1 in the same sentence; cloned in pET28a(+); also called mCerulean-PRMT1; source: E. coli Rosetta (DE3), purified (Ni-NTA, Superdex 200 SEC)
Consider B1, for which the binding result is “binds”.
